# Among all 360,000 compounds or so, about 17,000 (4.7%) were called active. The inconclusive results got no clear call from the source; some entries with a clear call stand among them for comparison. Rule as the data show it: active = activity change below about -50%; inconclusive = mostly about -30% to -49%; inactive = weaker than that.
# Assay: qHTS for Inhibitors of Inflammasome Signaling: IL-1-beta AlphaLISA Primary Screen
# Details: THP-1 LPS/ATP IL-1B secretion, 16 h; at 57.5 µM, stronger effect = lower value
# In short: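 Secreted IL-1B measured by AlphaLISA bead assay after 16 h compound exposure of THP-1 cells; compounds (final up to 57.5 uM) added 1 h before LPS (250 ng/mL) and ATP (1.25 mM) stimulation; lower signal means less secretion.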
# % is scaled to controls: 0 for no effect and ±100 for the full control effect.
row,SMILES,activity change
1,Cn1cnc([N+](=O)[O-])c1S(=O)(=O)c1ccc(Cl)cc1,active: -138%
2,Cc1ccccc1-c1nc(CS(=O)(=O)CC(=O)NCCCN2CC(C)CC(C)C2)c(C)o1 (centres undefined),inconclusive: -37%
3,CC(=O)OC1CC(C)N(C(=O)c2ccccc2)c2ccc(C)cc21 (centres undefined),inactive: -3.43%
4,CC(=O)Nc1cc(-c2cccc(C(=O)N(C)C)c2)cn2c(-c3ccc(C(C)=O)cc3)cnc12,inconclusive: -39.2%
5,Cc1ccc(C(O)c2ncc(-c3cccc(C(F)(F)F)c3)[nH]2)cc1 (centres undefined),inactive: -11.9%
6,CCOc1ccc2nc(NC(=O)c3cccc(-c4cc5ccccc5oc4=O)c3)sc2c1,inactive: -20.5%
7,COc1ccc(CCNS(=O)(=O)c2ccc(Cl)cc2)cc1OC,inactive: 0%
8,COC(=O)/C=C1/SC(=NC(=O)c2ccccc2)NC1=O,inactive: -3.32%
9,Cc1cc([N+](=O)[O-])ccc1-c1ccc(/C=N/NC(=O)c2ccc(Br)o2)o1,inconclusive: -41.6%
10,Cc1ccc(S(=O)(=O)N2C[C@H]3N(C(=O)OC(C)C)N(C(=O)OC(C)C)C[C@H](OC(=O)NCc4ccccc4F)[C@@]3(O)C2)cc1,inactive: -25.2%
11,CCOc1cc(-c2nc(-c3ccccc3OC)no2)cc(OCC)c1OCC,inconclusive: -35.1%
12,CC(C)(C)c1ccc(NC(=O)c2c(F)cccc2Cl)cc1,inactive: -16.4%
13,O=C1CC(Sc2ncccn2)C(=O)N1c1ccccc1C(F)(F)F (centres undefined),active: -80.3%
14,O=C1NC[C@H](Cc2ccc(O)cc2)N(CCc2cc(C(F)(F)F)cc(C(F)(F)F)c2)C1=O,inactive: -5.79%
15,COc1ccc(C2=NOC(CNC(=O)c3ccccc3Br)C2)c(OC)c1 (centres undefined),inconclusive: -31.3%
16,COc1ccc(-c2nnc(SC(C)C(=O)Nc3ccc4c(c3)OCCO4)o2)cc1 (centres undefined),inconclusive: -30.7%
17,COc1cccc(CNC(=O)CNC(=S)N(Cc2ccccc2)Cc2ccccc2F)c1,inconclusive: -45.3%
18,Cc1ccc(-c2cc(-c3ccccc3Cl)c(C#N)c(N)n2)o1,inconclusive: -39.4%
19,CCCCCCCN(c1ccccc1)[C@@H]1C[C@H]2CCCC(=O)N3CC[C@@H](C1)[C@@H]23,active: -108%
20,Clc1ccccc1OCc1nnc(-c2ccccc2Br)o1,inconclusive: -35.9%
21,CCCCOc1ccc(C(=O)NCC(=O)NCCOc2ccccc2)cc1,inactive: 1.6%
22,CN1/C(=C/c2cccc[n+]2C)Sc2ccccc21,active: -67%
23,COc1ccc(CC(CN)c2ccccc2)cc1 (centres undefined),inconclusive: -40.7%
24,Cc1cccc(NC(=O)c2nc(-c3ccccc3)n(-c3ccccc3)n2)c1C,inconclusive: -34.2%

# — PubChem BioAssay AID743279 (National Center for Advancing Translational Sciences (NCATS), 2014)
